Consider 14 compounds from patent US11938152B2, “High-dose antioxidants in cancer treatment” (priority 2020, dated 2024).

The subject of series [1] is neuroblastoma cells and breast cancer cells. The following applies: high doses, in culture and in mice with transplanted breast cancer; cited from earlier work.
For series [2], the system named is patients with head and neck cancer. The following applies: without interfering with efficacy of radiation therapy; cited from earlier work.
For another series, the system named is murine NB cells. The following applies: high doses, in culture; cited from earlier work.
Series [3] has as its system estrogen receptor (ER)-positive (MCF7) and ER-negative MDA-MB-231 breast cancer cells. The settings on record: in culture; cited from earlier work.
For series [4], the system named is murine neuroblastoma (NB) cells. Description: Killing of murine neuroblastoma cells in culture. It counts as cell-based.
Another series deals with breast cancer cells. The following applies: in culture; cited from earlier work.
The subject of another series is HCT 15 cell line. The following applies: cell line expressing reduced level of COX-2; cited from earlier work.
The subject of series [5] is human colon cancer cells over-expressing Cox-2 enzyme (HT29 cells). The settings on record: cited from earlier work.
Series [6] relates to tumor growth and metastasis. The settings on record: in vivo; cited from earlier work.
The test system of series [7] is normal epithelial cell line (IEC-6). The settings on record: cited from earlier work.
Series [8] relates to breast cancer cells in culture (MCF-7). The settings on record: 10 μM before irradiation, cited from earlier work.
Series [9] has as its system NK/T cell lymphoma (NKTCL). The following applies: cited from earlier work.
In a further series the test system is human leiomyoma cells. The following applies: in culture; cited from earlier work.
Series [10] relates to androgen-sensitive (22RV1) and androgen insensitive prostate cancer cells. The following applies: cited from earlier work.
A further series deals with hepatoma cells. The following applies: cited from earlier work; for levels of phosphorylated H2AX (yH2AX): individual treatment, in culture.
The subject of series [11] is normal prostate epithelial cells. The settings on record: 2.5-10 μM; cited from earlier work.
Another series relates to ovarian cancer cells. The following applies: in culture; cited from earlier work.
Another series concerns pancreatic cancer cells. The following applies: high doses of ascorbate; cited from earlier work.
A further series has as its system cancer cells. The following applies: high doses; cited from earlier work.
The subject of series [12] is human colorectal cancer (CRC cell line) carrying Kras mutation or Braf mutation. The following applies: cited from earlier work.
A further series relates to normal cells. The following applies: high doses of ascorbate; cited from earlier work.
Series [13] deals with tumorigenic parotid acinar cells (2HP1G). The series is described as follows: Growth of tumorigenic parotid acinar cells in culture. It is filed as cell-based.
Another series has as its system murine normal fibroblast. Description: Growth of murine normal fibroblast. It is filed as cell-based. The following applies: high doses.
Series [14] deals with patients with differentiated thyroid cancer. The settings on record: daily dose of 1500 mg, radioiodine therapy; cited from earlier work.
Series [15] has as its system locally advanced, borderline resectable pancreatic cancer. The following applies: intravenous high doses as ascorbic acid, with gemcitabine and radiation therapy; cited from earlier work.
Series [16] concerns H-ras transformed human breast epithelial cells. The settings on record: cited from earlier work.
The test system of series [17] is human breast cancer cells. The following applies: 0.9 μM to 9.0 μM, in culture; cited from earlier work.
For the next series, the system named is human glioma cells. The following applies: in culture; cited from earlier work.
Series [18] has as its system non-transformed astrocytes. The settings on record: cited from earlier work.
Another series relates to breast cancer patients. The settings on record: cited from earlier work.
The subject of another series is gastric carcinoma. The following applies: cell culture and xenograft models; cited from earlier work.
For the next series, the system named is various cancer cells. The following applies: in culture; cited from earlier work.
In series [19] the test system is chronic myelogenous leukemia cells. The following applies: co-treatment, in culture; cited from earlier work.
Another series has as its system human colon cancer cells. The following applies: in culture; cited from earlier work.
Series [20] concerns radioresistant cervical cancer cells. The following applies: pre-treatment; cited from earlier work.
In series [21] the test system is B-16 murine melanoma cells. The settings on record: high doses, in culture; cited from earlier work.
Another series concerns murine melanoma cells. Description: Differentiation and growth of murine melanoma cells in culture. It counts as cell-based. The source says:
Several studies using other cancer cell lines in culture and in animal models confirmed this observation.

In series [22] the test system is human cervical cancer cells and ovarian cancer cells. The series is described as follows: Chromosomal damage in human cancer cells. It counts as cell-based.
A further series concerns neuroblastoma cells. Description: Apoptosis and hyperthermia in neuroblastoma cells. The following applies: 40° C., 41° C., and 43° C., in culture (Table 6 in FIG. 6). It counts as cell-based. As for the experimental part: Hyperthermia at 40° 43° C. alone or in combination with radiation therapy is primarily used in the management of local tumor control after all standard therapeutic modalities have failed. Variable improvements in transient local tumor control have been observed.

Series [23] concerns human normal fibroblasts. The series is described as follows: Chromosomal damage in human normal fibroblasts. It is filed as cell-based.
Series [24] relates to human normal fibroblasts. Description: Adriamycin toxicity on human normal fibroblasts. It counts as cell-based. The following applies: Table 5 in FIG. 5.
The test system of series [25] is human cervical cancer cells (HeLa cells). Description: Adriamycin toxicity on HeLa cells. It counts as cell-based. The settings on record: Table 5 in FIG. 5.
The subject of series [26] is breast cancer cells in culture or mice carrying breast cancer cells. The following applies: cited from earlier work.

For the compound `O=C(O)CCCCC1CCSS1` (stereo not drawn) [Alpha-lipoic acid], the “glucose uptake and growth” value in [1] is “reduced glucose uptake and reduced the growth”.
For `CC1=C(/C=C/C(C)=C/C=C/C(C)=C/C=C/C=C(C)/C=C/C=C(C)/C=C/C2=C(C)CCCC2(C)C)C(C)(C)CCC1` [Beta-carotene], the radiation-induced oral mucositis result in series [2] is “reduced radiation-induced oral mucositis”. In addition, in the series on murine NB cells, the differentiation result is “induced differentiation”.
On to `O=C(O[C@@H]1Cc2c(O)cc(O)cc2O[C@@H]1c1cc(O)c(O)c(O)c1)c1cc(O)c(O)c(O)c1` [EGCG, epigallocatechin gallate], for which, in [3], the “uptake of glucose and growth” value was “inhibited the uptake of glucose and reduced the growth”.
In the case of `N[C@@H](CCC(=O)N[C@@H](CS)C(=O)NCC(=O)O)C(=O)O` [Glutathione], the “killing of NB cells compared with vitamin C” value in series [4] is listed as “more effective than vitamin C in killing NB cells”.
In the case of `O=c1c(O)c(-c2ccc(O)c(O)c2)oc2cc(O)cc(O)c12` [Quercetin], in the series with breast cancer cells, the migration result was “prevented the migration” and the uptake of glucose result is reported as “blocked the uptake of glucose”. The “effectiveness relative to HT29 cells” value in the series with HCT 15 cell line is recorded as “less effective”. For the same compound, the “uptake of glucose and growth” value in series [3] was “inhibited the uptake of glucose and reduced the growth”. The apoptosis and growth entry in series [5] is “induced apoptosis and inhibited the growth”. For the same compound, the “tumor growth and metastasis” value in series [6] was “inhibited tumor growth and metastasis”. Further, the “effect on normal epithelial cells” value in series [7] is “minimal effect”.
Take `Oc1ccc(C=Cc2cc(O)cc(O)c2)cc1` [Resveratrol]: the “activity of caspase 8” value in series [8] (in 24 hours) was “increased activity of caspase 8”. In addition, the apoptosis pathway entry in series [8] is on record as “increased apoptosis pathway”. Also, the cell proliferation result in series [9] (dose-dependent) was “reduced cell proliferation”. Besides, the apoptosis entry (in series [9] (through mitochondrial pathway); in the series on ovarian cancer cells) was “induced apoptosis” in each case. In addition, the values for the growth entry (in the series with human leiomyoma cells; in [10] (2.5-10 μM); in [11]) were “reduced the growth”, “inhibited the growth” and “not of normal prostate epithelial cells”, respectively. Further, the ionizing radiation-induced apoptosis result in series [10] is listed as “enhanced ionizing radiation-induced apoptosis”. In the series on hepatoma cells, the glutamine metabolism entry was “inhibited glutamine metabolism”. The “levels of phosphorylated H2AX (yH2AX)” value with hepatoma cells is recorded as “enhanced the levels”.
On to `O=C1O[C@H]([C@@H](O)CO)C(O)=C1O` [Vitamin C, ascorbic acid], for which the “effect of radiation on pancreatic cancer cells” value in the series with pancreatic cancer cells is “sensitize the effect of radiation”. Also, the “growth of cancer cells and normal cells in humans” value in the series with cancer cells was “inhibits the growth of cancer cells without affecting the growth of normal cells”. Moreover, in [12], the cell killing entry is “killed selectively”. Besides, in the series with normal cells, the “radiation-induced damage to normal cells” value is on record as “inhibited radiation-induced damage”. In series [13], the “growth of tumorigenic parotid acinar cells” value is recorded as “inhibited the growth”. Also, the cells killed in [4] (high concentration) was determined as 100%. Moreover, in the series on murine normal fibroblast, the “growth of murine normal fibroblast” value is reported as “only slightly reduced”. Besides, in [14], the oxidative stress result is “reduced oxidative stress”. Also, the overall survival time result in series [15] was “increased overall survival time”.
In the case of `C=C1CC[C@H](O)C/C1=C/C=C1\CCC[C@]2(C)[C@@H]([C@H](C)CCCC(C)C)CC[C@@H]12` [Vitamin D3, cholecalciferol], in [16], the “glutamine uptake and growth” value was “inhibited glutamine uptake and reduced their growth”; the “level of glutamine transporter protein (SLC1A5)” value is reported as “reducing the level”.
As to `N.N.[Cl][Pt][Cl]` [cisplatin], the “levels of phosphorylated H2AX (yH2AX)” value in the series on hepatoma cells is given as “enhanced the levels”.
Regarding `COC1=C(OC)C(=O)C(C/C=C(\C)CC/C=C(\C)CC/C=C(\C)CC/C=C(\C)CC/C=C(\C)CC/C=C(\C)CC/C=C(\C)CC/C=C(\C)CC/C=C(\C)CCC=C(C)C)=C(C)C1=O` [coenzyme Q10, Coenzyme Q10], in series [17], the cytotoxicity of doxorubicin result is given as “did not interfere with the cytotoxicity” and the growth result was “did not inhibit the growth”. Also, in the series on human glioma cells, the “cytotoxicity of TMZ (temozolomide)” value was “enhanced the cytotoxicity of TMZ”; the “sensitivity to ionizing radiation (DNA damage and apoptosis)” value is “increased the sensitivity to ionizing radiation”. The “effect on non-transformed astrocytes” value in series [18] is “without affecting non-transformed astrocytes”. Further, the “survival of breast cancer patients” value with breast cancer patients (daily supplementation 390 mg or more, with standard cancer therapy) is recorded as “may increase the survival”. For the same compound, the “fatigue and quality of life” value in the series on breast cancer patients (supplementation with 300 mg) was “did not improve the extent of fatigue or the quality of life”.
Regarding `COc1cc(/C=C/C(=O)CC(=O)/C=C/c2ccc(O)c(OC)c2)ccc1O` [curcumin, Curcumin], the growth entry with gastric carcinoma was “inhibited growth”. Moreover, the growth and apoptosis result with various cancer cells is “inhibits the growth and induces apoptosis”. Also, in [19], the “apoptosis induced by arsenic oxide or lonidamine” value is recorded as “increased the levels of apoptosis” and the “apoptosis induced by cisplatin” value is listed as “no similar effect”. In addition, the proliferation entry in the series with human colon cancer cells was “reduced the proliferation”. In [20], the ionizing radiation-induced apoptosis entry is “enhanced ionizing radiation-induced apoptosis”.
`CC1=C(/C=C/C(C)=C/C=C/C(C)=C/CO)C(C)(C)CCC1` [retinol]: in series [21], the differentiation result was “induced differentiation”.
`Cc1c(C)c2c(c(C)c1OC(=O)CCC(=O)O)CC[C@@](C)(CCC[C@H](C)CCC[C@H](C)CCCC(C)C)O2` [vitamin E succinate, D-alpha tocopheryl succinate]: the “expression of oncogenes c-myc and H-ras” value with murine melanoma cells (growth-inhibitory dose) is “reduced the expression”. Also, in the series with murine melanoma cells (high doses, in culture (FIG. 7)), the differentiation and growth result was “induced differentiation and growth inhibition”. Besides, the “radiation-induced chromosomal damage in cancer cells” value in series [22] (FIG. 9) is given as “enhanced the levels of radiation-induced chromosomal damage”. Moreover, the chromosomal damage entry in series [22] (in culture) is “induced chromosomal damage”; in the series with human normal fibroblasts [23] (in culture) it was “not in human normal fibroblasts”. Further, the “apoptosis alone and with hyperthermia” value in the series with neuroblastoma cells was “induced apoptosis and enhanced apoptotic effects of hyperthermia”. Moreover, the “radiation-induced chromosomal damage in normal cells” value in the series on human normal fibroblasts [23] (FIG. 9) is given as “protected normal cells against such damage”. The “toxicity of Adriamycin” value is “not on human normal fibroblasts” in the series with human normal fibroblasts [24] and “enhanced the toxicity” in series [25].
For the compound Omega-3-fatty acids, the “glucose and glutamine metabolism and growth” value in series [26] was “inhibited glucose and glutamine metabolism, and reduced their growth”.
